Data on 43 compounds can be found in ChEMBL document CHEMBL4888484, “Replenishing the malaria drug discovery pipeline: Screening and hit evaluation of the MMV Hit Generation Library 1 (HGL1) against asexual blood stage Plasmodium falciparum ,using a nano luciferase reporter read-out” (2022).

Molecules are shown by their SMILES. About 540 (0.36%) of roughly 150,000 compounds showed an effect of 50% or more. The list shows a part of the results.

This test has as its system Plasmodium falciparum. The test can be described thus: Primary screen in NF54 nanoGlo assay, in single point, at 2uM, 72h; a lower Z score goes with more inhibition. Type of test: functional, Erythrocyte. The note with it: timepoint 72 hour.
One may read the % Inhibition as the drop in the measured response relative to a control, in per cent. Take `CCc1ccc(CN2CCc3c(C(=O)N(C)CC(N)=O)csc3C2)nc1`: the “% Inhibition” value is recorded as -10% and the Z score came to 1.94.

`O=C1CCC(=O)N1CCCc1ccccc1Br`: the “% Inhibition” value is -14% and the Z score is given as 1.41.

In the case of `COc1csc(C(=O)Nc2ccnn2C2CCN(C)CC2)c1`, the “% Inhibition” value was determined as 1% and the Z score is -0.2.

Regarding `O=C1[C@H]2Cc3ccccc3CN2C(=O)CN1C1CCCCC1`, the “% Inhibition” value is on record as -6% and the Z score is reported as 1.08.

In the case of `O=C(NCc1ccoc1)c1ccc(S(=O)(=O)NCC(F)F)cc1`, the “% Inhibition” value was -9% and the Z score amounted to 0.86.

As for `O=C(Nc1cc(Cl)ccc1Oc1ccc2ccccc2c1Cl)c1cc(Br)cc(Br)c1O`, the “% Inhibition” value is reported as -1% and the Z score is 0.14.

For `CC[C@@H](C(=O)N1CCc2[nH]nc(C3CC3)c2C1)n1cccn1`, the “% Inhibition” value is 6% and the Z score is given as -1.28.

`Cc1c(Br)cccc1CCNC(=O)Cc1ccon1`: the “% Inhibition” value was -6% and the Z score was found to be 0.93.

With `CCC1(CO)CCN(C(=O)NCC2CCC(C)(C)CC2)CC1`, the “% Inhibition” value was -5% and the Z score was 0.9.

Regarding `Fc1ccc(-n2c(-c3ccncc3)nnc2-c2cccs2)cc1`, the “% Inhibition” value is given as -28% and the Z score is listed as 3.31.

Turning to `COc1ccc(S(=O)(=O)C2CCN(C(=O)Cn3cnc4ccccc43)CC2)cc1`, the “% Inhibition” value is listed as -8% and the Z score is listed as 1.01.

As for `Cc1ccc(CN2CCCN(C(=O)Cn3nc(C)cc3C)CC2)cc1`, the “% Inhibition” value is given as -9% and the Z score amounted to 1.17.

In the case of `COc1ccc(N2CCN(C(=O)Cc3c(C)nn(-c4ccc(C)c(C)c4)c3C)CC2)cc1`, the “% Inhibition” value is 1% and the Z score was -0.09.

Regarding `Cc1cc(NC(=O)c2cnccn2)sn1`, the “% Inhibition” value is on record as -2% and the Z score was determined as 0.43.

Take `Cc1cc(S(=O)(=O)N(C)Cc2nccs2)sc1Cl`: the “% Inhibition” value is -2% and the Z score was determined as 0.25.

With `COc1ccccc1OC1(C(=O)O)CCN(Cc2ccc(C)o2)CC1`, the “% Inhibition” value is given as -4% and the Z score was 0.38.

In the case of `COc1cccc(C(=O)N(CC(=O)Nc2nc(-c3ccccc3)cn2-c2ccc(C(F)(F)F)cc2)C2CC2)c1`, the “% Inhibition” value is listed as -12% and the Z score was found to be 1.82.

For the compound `O=C(Cc1ccc(C(=O)Nc2nc(-c3ccccc3)cs2)cc1)c1ccccc1`, the “% Inhibition” value is on record as 30% and the Z score is reported as -1.09.

Turning to `Cn1cc(C(=O)N2C[C@@H]3CC[C@H]2CN(C(=O)c2ccccn2)C3)cn1`, the “% Inhibition” value is on record as -7% and the Z score worked out at 1.04.

Regarding `Clc1cccc2c1OCCN2Cc1cnc(C2CC2)s1`, the “% Inhibition” value is -4% and the Z score stood at 0.32.

`Cc1ccc(NC(=O)C(=O)N2CCO[C@H](C3CCCCC3)C2)nc1`: the “% Inhibition” value is -12% and the Z score was 1.63.

`C=CCCC(=O)N1CCC([C@H](C)NC(=O)OC(C)(C)C)CC1`: the “% Inhibition” value is -3% and the Z score is listed as 0.35.

Turning to `O=C(CNC(=O)OCc1ccccc1)NCc1ccc(C2CC2)nc1`, the “% Inhibition” value is 13% and the Z score is recorded as -1.6.

As for `NS(=O)(=O)c1cccnc1NCC1CC1`, the “% Inhibition” value amounted to 14% and the Z score is reported as -1.64.

In the case of `Cc1ccc(F)cc1-c1nnc(NS(C)(=O)=O)o1`, the “% Inhibition” value is recorded as -35% and the Z score worked out at 4.11.

As to `O=C(Nc1ccc(F)cc1F)c1ccc(C(=O)Nc2ccc(F)cc2F)s1`, the “% Inhibition” value was -7% and the Z score is 0.8.

As for `C=CCN(C)c1nc(-c2cccnc2)nc2c1CCNC2`, the “% Inhibition” value is -12% and the Z score was determined as 2.33.

As for `CCc1nc2cc(N3CCC[C@H](C(=O)N(C)Cc4ccco4)C3)cnc2nc1CC`, the “% Inhibition” value is on record as -7% and the Z score was found to be 1.29.

Consider `CCn1cc(C(=O)NCc2ccccc2CN(C)C(=O)OC(C)(C)C)c(C2CC2)n1`, for which the “% Inhibition” value was 9% and the Z score is -1.47.

Regarding `O=C(Cn1c(-c2cccs2)cc2cc(F)ccc21)NCc1ccccc1F`, the “% Inhibition” value amounted to 7% and the Z score is given as -1.19.

Regarding `COCC(=O)[C@H](C#N)c1ccc(Cl)cc1`, the “% Inhibition” value was -11% and the Z score was found to be 1.66.

On to `CCn1ncc(NC(=O)Cn2ncc3cc(-c4ccc(OC)nc4)ccc32)n1`, for which the “% Inhibition” value is on record as -7% and the Z score was 1.35.

Turning to `COc1cc(-c2cccc(C(=O)N3CCS(=O)(=O)CC3)c2)nc(OC)n1`, the “% Inhibition” value was found to be 9% and the Z score is recorded as -1.14.

Consider `CN(C)C1(CNC(=O)Nc2ccccc2OCc2ccco2)CCOCC1`, for which the “% Inhibition” value was -10% and the Z score is given as 1.77.

For the compound `CN(C(=O)CC1CC2CCC1C2)[C@H]1CS(=O)(=O)C[C@@H]1O` (stereo partly specified), the “% Inhibition” value was found to be 15% and the Z score is recorded as -1.71.

As to `CN(C)C(=O)CNCc1ccc(C#CCO)s1`, the “% Inhibition” value is recorded as -12% and the Z score was 2.17.

Take `COc1ccc(C)cc1NC(=O)c1c(C)cc(C)n1Cc1ccc(F)c(F)c1`: the “% Inhibition” value is given as -5% and the Z score worked out at 0.96.

With `O=C([C@@H]1CCCc2[nH]ncc21)N1CCC2(CCC2)CC1`, the “% Inhibition” value was -22% and the Z score is 2.57.

On to `CC(C)c1noc([C@H](C)NC(=O)CCC(=O)Nc2nncs2)n1`, for which the “% Inhibition” value is recorded as 0% and the Z score is -0.07.

On to `O=C(c1ccc2c(=O)n3c(nc2c1)CCCCC3)N1CCCCCC1`, for which the “% Inhibition” value was -6% and the Z score is recorded as 1.15.

In the case of `O=C(C1CCCC1)N1CCC[C@H]1c1ccncc1`, the “% Inhibition” value is listed as -10% and the Z score stood at 1.22.

As to `CCc1nnc(CNc2ccc(-c3cccc(F)c3)c(F)c2)o1`, the “% Inhibition” value is -4% and the Z score was determined as 0.79.

Take `CCC[C@H](O)CNC(=O)Nc1ccc(C)s1`: the “% Inhibition” value is recorded as -6% and the Z score is 1.11.
